The other results are listed elsewhere or left out.

The test system of this experiment is HepG2. Kind of experiment: cytotoxicity call (relative viability < 0.9). Particulars: 10 µM.
As to `C[C@H](CO)N1C[C@H](C)[C@H](CN(C)C(=O)Cc2ccncc2)Oc2cc(-c3cncnc3)ccc2S1(=O)=O`, the cytotoxicity call was “inactive”. As to `COc1ccccc1Nc1nc(-c2ccc(Cl)cc2)cs1`, the cytotoxicity call was “inactive”.

`O=C(O)CSC(=S)N1CCOCC1`: the cytotoxicity call is “inactive”. For `CCOC(=O)[C@H]1C/C=C/C[C@H](C(=O)OCC)C(=O)O[C@H]2[C@@H](OC)O[C@H](CO)[C@@H](OC(=O)Nc3ccc(OC)cc3)[C@@H]2OC1=O`, the cytotoxicity call was “inactive”. Take `CCc1c(C(=O)OC)nnc2cc(C)nn12`: the cytotoxicity call is “inactive”.

For the molecule `C[C@@H]1CN([C@@H](C)CO)C(=O)c2cc(NC(=O)Nc3ccc4c(c3)OCO4)ccc2O[C@@H](C)CCCCO[C@@H]1CN(C)Cc1ccc(C(=O)O)cc1`, the cytotoxicity call is “inactive”. For the molecule `C[C@@H]1CN([C@@H](C)CO)C(=O)c2cc(NS(=O)(=O)c3cccs3)ccc2O[C@@H]1CN(C)S(C)(=O)=O`, the cytotoxicity call is “inactive”. For the molecule `CC(=O)n1cc([C@H]2C=C(C(=O)N3CCCCCCC3)O[C@@H](OCc3ccc(CO)cc3)C2)c2ccccc21`, the cytotoxicity call is “inactive”. On to `CC(C)NC(=O)N(C)C[C@@H]1Oc2ccc(NC(=O)C3CCCCC3)cc2C(=O)N([C@H](C)CO)C[C@H]1C`, for which the cytotoxicity call was “inactive”. For the molecule `C[C@@H]1CCCCO[C@@H](CN(C)S(=O)(=O)c2ccc(F)cc2)[C@@H](C)CN([C@@H](C)CO)C(=O)c2cc(NS(C)(=O)=O)ccc2O1`, the cytotoxicity call was “inactive”. On to `Nc1ccc(S(=O)(=O)Nc2ncccn2)cc1`, for which the cytotoxicity call is “inactive”. Take `O=C(C[C@@H]1CC[C@H]2[C@@H](COC[C@H](O)CN2S(=O)(=O)c2ccccc2)O1)N[C@H]1CCN(Cc2ccccc2)C1`: the cytotoxicity call is “inactive”. Consider `C[C@@H]1CCCCO[C@@H](CN(C)Cc2ccc(C(=O)Nc3ccccc3N)cc2)[C@@H](C)CN([C@H](C)CO)C(=O)c2cc(NC(=O)Nc3ccc(F)cc3)ccc2O1`, for which the cytotoxicity call is “inactive”. As for `C[C@@H]1CCCCO[C@H](CN(C)C(=O)Nc2cccc3ccccc23)[C@@H](C)CN([C@H](C)CO)C(=O)c2cc(NS(=O)(=O)c3ccc(Cl)cc3)ccc2O1`, the cytotoxicity call was “inactive”. Take `C[C@H](CO)N1C[C@H](C)[C@H](CN(C)S(=O)(=O)c2ccccc2)Oc2ncc(-c3cccc(F)c3)cc2C1=O`: the cytotoxicity call is “inactive”. Consider `Cc1ccc(S(=O)(=O)N(C)C[C@@H]2OCCCC[C@H](C)Oc3ccc(NC(=O)CCC(F)(F)F)cc3C(=O)N([C@H](C)CO)C[C@H]2C)cc1`, for which the cytotoxicity call was “inactive”. Regarding `C[C@@H]1CN([C@H](C)CO)C(=O)c2cc(C#CC3CC3)cnc2O[C@H]1CN(C)S(=O)(=O)c1cccc(F)c1`, the cytotoxicity call is “inactive”. Under `C[C@H]1CN([C@@H](C)CO)C(=O)Cc2cc(NC(=O)CCC(F)(F)F)ccc2O[C@@H]1CN(C)S(C)(=O)=O` stands “inactive”. Regarding `C[C@@H]1CN([C@@H](C)CO)C(=O)c2cc(NC(=O)NC3CCCCC3)ccc2O[C@@H](C)CCCCO[C@H]1CN(C)S(=O)(=O)c1ccccc1`, the cytotoxicity call was “inactive”. Turning to `C[C@H](CO)N1C[C@H](C)[C@@H](CN(C)Cc2ccc(Cl)c(Cl)c2)Oc2ccc(NS(=O)(=O)c3ccc(Cl)cc3)cc2C1=O`, the cytotoxicity call was “active”. Under `C[C@H]1CN([C@@H](C)CO)S(=O)(=O)c2ccc(-c3cncnc3)cc2O[C@@H]1CN(C)C(=O)NC1CCCC1` stands “inactive”; under `C[C@@H]1CN([C@@H](C)CO)C(=O)Cc2cc(NS(=O)(=O)c3ccc(Cl)cc3)ccc2O[C@H]1CN(C)C`, “inactive”; under `C[C@@H]1CCCCO[C@@H](CN(C)C(=O)C2CCCCC2)[C@H](C)CN([C@H](C)CO)C(=O)c2cc(NC(=O)NC3CCCCC3)ccc2O1`, “inactive”.

As for `CCn1ncc(NC(=O)Cn2ccc(C(=O)OC)n2)n1`, the cytotoxicity call was “inactive”.

As for `Cc1ccc(S[C@]2(C(=O)NC3CC3)CC(=O)N(C3CCCCC3)[C@@H]2c2ccc(CO)cc2I)cc1`, the cytotoxicity call is “inactive”.

For the molecule `NC(=O)NCC#Cc1ccc2c(c1)[C@]1(C(=O)N2)[C@H](c2ccccc2OCCO)N2[C@H](c3ccccc3)[C@H](c3ccccc3)OC(=O)[C@H]2[C@@H]1C(=O)N1CCCCCCC1`, the cytotoxicity call was “inactive”. Then `Cc1ccc(S(=O)(=O)N(C)C[C@@H]2Oc3c(NC(=O)C4CCOCC4)cccc3C(=O)N([C@H](C)CO)C[C@@H]2C)cc1`, with “inactive”; and `NCc1cccc(N2CCCCC2)c1`, with “inactive”.

In the case of `C[C@H]1CN([C@@H](C)CO)C(=O)c2cc(C#CCN(C)C)cnc2O[C@H]1CN(C)C(=O)CCN1CCCCC1`, the cytotoxicity call is “inactive”.

For `COC(=O)c1c2oc(c1C(=O)OC)C(=O)N(C)Cc1cn(nn1)C[C@H](Cc1ccccc1)NC(=O)N[C@H](CO)CC2`, the cytotoxicity call is “inactive”. As for `Cc1ncc(COP(=O)(O)O)c(C=O)c1O`, the cytotoxicity call is “inactive”. Regarding `C[C@@H]1CN([C@H](C)CO)C(=O)c2cccc(NC(=O)Nc3cccc4ccccc34)c2O[C@H]1CN(C)C(=O)Nc1cccc2ccccc12`, the cytotoxicity call was “inactive”. Then `Cc1noc(C)c1NC(=O)N(C)C[C@@H]1Oc2ccc(NC(=O)CCCN(C)C)cc2C(=O)N([C@@H](C)CO)C[C@H]1C`, with “inactive”; and `CN1CCN(C(=O)C[C@@H]2CC[C@@H]3[C@H](COc4ccc(NC(=O)C5CCCCC5)cc4C(=O)N3C)O2)CC1`, with “inactive”; and `C[C@H](CO)N1C[C@H](C)[C@H](CN(C)C(=O)c2ccccn2)Oc2cc(C#Cc3ccc(F)cc3)ccc2S1(=O)=O`, with “inactive”. Under `C[C@@H]1CCCCO[C@H](CN(C)C(=O)NC2CCCCC2)[C@H](C)CN([C@H](C)CO)C(=O)c2cc(NC(=O)C3CCCCC3)ccc2O1` stands “inactive”; under `Cn1c(=O)n2n(c1=O)[C@H](C1CC1)C=C1CN3[C@@H]([C@H](CCn4cc(-c5cccc(/C=C/C(=O)NO)c5)nn4)OC(=O)[C@@H]3Cc3ccccc3)[C@@H]12`, “inactive”.

Regarding `S=C1NCN(Cc2cccs2)CN1`, the cytotoxicity call is “inactive”. With `CO[C@@H]1CN(C)C(=O)c2ccc(NS(=O)(=O)c3cn(C)cn3)cc2OC[C@@H](C)N(CC2CC2)C[C@H]1C`, the cytotoxicity call is “inactive”. Consider `Cc1ccc(S(=O)(=O)Nc2cccc3c2O[C@@H](CN(C)C(=O)NC(C)C)[C@@H](C)CN([C@@H](C)CO)C3=O)cc1`, for which the cytotoxicity call was “inactive”.

Source of the values: the antibiotic and cytotoxicity screens of Wong et al. (2023).
